± gives the standard deviation of the averaged measurements. The list shows a part of the results.

The test system of the assay is PfAP2-I AP2 domain 3 (GST-tagged). In words: gcPBM binding intensity (ln(normalized median fluorescence intensity)); higher = stronger DNA binding. In a few lines:
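The highest Masliner-normalised natural-log median intensity across replicate spots of either probe orientation is reported as binding intensity. GST-tagged P. falciparum DNA-binding domains expressed in E. coli were applied for 1 h to an Agilent 4 × 180k array of primer-extended double-stranded 36-bp intergenic genomic probes plus negative controls, and bound protein was detected with Alexa488 anti-GST antibody and scanned at 488 nm.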
As to “TTTTTATTTATATGTATACACACTTTAATTAAAAGT [CACACA_site2525]”, the “gcPBM binding intensity (ln)” value amounted to 8.12 ± 0.73. The value for “CAGAATATATTCTATACATGCAATAGGAAATGTAGC [TGCATGCA_site110]” was 8.26 ± 0.81; that for “TCATTCTAAATATAAACACACATAAATATATACATT [CACACA_site3354]” was 7.53 ± 0.6. For “AATATATAATTTTTAACACACAAAAAAAAAAAAAAT [CACACA_site3581]” the value was 7.76 ± 0.35. For “AAAAAAAAAAAAAAAACACACACATATAATATATTT [CACACA_site8369]” the value was 8.49 ± 0.47; for “ATTGCGTGATAATAATGTACAAAAAGTAATTTATAT [XGTACX_site8339]”, 7.77 ± 0.52. Consider “GGTACGTATTTCAATGCATGTCCATGTACATATAAA [TGCATGCA_site208]”, for which the “gcPBM binding intensity (ln)” value worked out at 8.17 ± 0.52. The value for “CTATAATGTTTCTTTCAACACACAAAAAATGAACAC [CACACA_site8438]” was 8.33 ± 0.38; that for “CATACGTTCTAATATATACACACCTGGTATTAATTA [CACACA_site2221]” was 7.78 ± 0.59; that for “ATAAATATGTTCTGCACACAAATAAGTGTTTGAAGT [CACACA_site3892]” was 8.49 ± 0.47.

Regarding “GAATTTCAACAAAGTAGTACATTTTATAGTAATTGG [XGTACX_site2319]”, the “gcPBM binding intensity (ln)” value is 7.75 ± 0.47. The value for “TAATGGAATAAAAATTGTACATATTTTTTTTTTTTT [XGTACX_site7669]” was 7.79 ± 0.54; that for “ACATACATACATACATACATACATACATACATACAT [XGTACX_negctrl_site315]” was 8.96 ± 0.38. The value for “TATAATATATCTGTAACACACAAAAGTTATATACTT [CACACA_site5578]” was 7.62 ± 0.47; that for “TTTTTTTCTCTCTCTACACACAAGGTTTAATTTAAA [CACACA_site1690]” was 8.05 ± 0.47.

With “AACTCACGAGGACACACACACATATATATATATATA [CACACA_site4711]”, the “gcPBM binding intensity (ln)” value was 9.46 ± 0.24.

Regarding “ATATTTATAATATAGAGTACTTACTAAGTTATGGGT [XGTACX_site5405]”, the “gcPBM binding intensity (ln)” value amounted to 8.07 ± 0.47.

Regarding “AATGTGTAGGTAAGATAATTTTTGTTTTTTTATTTG [CACACA_negctrl_site424]”, the “gcPBM binding intensity (ln)” value was determined as 7.29 ± 0.83. As for “TTAAACTTGAAACACACACACACACCCATATAAAAA [CACACA_site758]”, the “gcPBM binding intensity (ln)” value was 8.12 ± 0.29. For “TGTAGTCTGGAGAAACGTACATAGTATCTGGTAGCT [XGTACX_site2538]” the value was 7.79 ± 0.87; for “AAATTTTCTTAAGGTTGTACTTTTTGAAAATAATCT [XGTACX_site4894]”, 7.67 ± 0.38; for “TTTTTATATATATGTATAAATATTTTTTCTATTTAT [XGTACX_negctrl_site606]”, 7.42 ± 0.49. “TAAATACAGACATACACACATACACCCACATATATA [CACACA_site547]”: the “gcPBM binding intensity (ln)” value was 8.105 ± 0.078. Turning to “ATTAAAATGGAGTATTAATATGATATATATATATAT [GTGCAC_negctrl_site509]”, the “gcPBM binding intensity (ln)” value came to 9.42 ± 0.45.

As for “AGGAACATTTACGCCCCACACACCTACCAACAAAAA [CACACA_site3827]”, the “gcPBM binding intensity (ln)” value stood at 8.6 ± 0.18. The value for “TATATATATATTTTTGGTACAGATATTTTCTTCTCT [XGTACX_site4432]” was 9.06 ± 0.042.

On to “TTACAACCATAAAATGCATGTAAATGACAAAAAAAA [TGCATGCA_site944]”, for which the “gcPBM binding intensity (ln)” value came out at 7.93 ± 0.79. The value for “AATATATATATATATTGTACACACATTTATGCATAT [XGTACX_site6856]” was 8.12 ± 0.34. The value for “TAAAATTAAATGAAATCATTATTCATTTTTATTTTA [CACACA_negctrl_site1281]” was 6.88 ± 0.45; that for “ATTCTTTTTTTTTTCTTATATTCTAATCACCACCTT [XGTACX_negctrl_site179]” was 8.46 ± 0.3; that for “CATATAAATAAACACACACACACATATATATATATA [CACACA_site5309]” was 9.29 ± 0.39. For “AATAGGTGCCTTTTTTCACACACATGTCAACTAAAT [CACACA_site8846]” the value was 9.05 ± 0.085; for “TTTGGTAAGCGTGTCGCATGTAGAACAAGTCTACAT [TGCATGCA_site577]”, 7.39 ± 0.89.

“ATGAAATTATTATATAAACACACATTTATTTTATTT [CACACA_site8597]”: the “gcPBM binding intensity (ln)” value stood at 7.59 ± 0.49. “TTACAAAAAGGTAATTTACACACTGCATATAGGAAT [CACACA_site8956]”: the “gcPBM binding intensity (ln)” value was determined as 8.36 ± 0.69.

Regarding “TCTTAATATGGTAATACACACTAATATACTTTTGTT [CACACA_site4969]”, the “gcPBM binding intensity (ln)” value turned out to be 7.93 ± 0.53.

As to “ACCCTTCAATTTAATTGTACAAGAAAAAAAAAAAAA [XGTACX_site2927]”, the “gcPBM binding intensity (ln)” value was determined as 8.11 ± 0.55.

In the case of “AAATAATCATAAAATAAACACACATATATAAATATA [CACACA_site7981]”, the “gcPBM binding intensity (ln)” value worked out at 7.47 ± 0.43. The value for “TGCTCAAACTTTACAAATGAACGAATATAAAAAAAG [CACACA_negctrl_site541]” was 7.92 ± 0.7.

“ACATAATATACTATTGTGCACATATATATATATATA [GTGCAC_site9761]”: the “gcPBM binding intensity (ln)” value came to 10.88 ± 0.085.

Consider “GTTAATTTAATTATATGTACGAAAAAATACGTTATA [XGTACX_site1306]”, for which the “gcPBM binding intensity (ln)” value was found to be 7.84 ± 0.11. For “TTTTTATTTTTTTATTTCTTATCAAATAAAATATAT [XGTACX_negctrl_site537]” the value was 7.54 ± 0.66; for “AATATTTTGTTATTTATTTAATCTAATATTACTATC [CACACA_negctrl_site4]”, 7.5 ± 0.74; for “ATATATATATAAATATGTACATATATACATATATAC [XGTACX_site2374]”, 8.84 ± 0.28. The value for “TAGGAAAATTACAAAAGTACTTGGCACATAATAATG [XGTACX_site6005]” was 8.27 ± 0.26. For “AAAAAAAAAAAATACACACAAACACAAATTAAATAA [CACACA_site3809]” the value was 7.72 ± 0.38; for “ATTATAGAATATTGAAGTACAAAATTTAAAATAAGT [XGTACX_site1468]”, 7.96 ± 0.59; for “TAGATATTTTTGAAAAGTACAAATTTTTAAAAATTA [XGTACX_site4420]”, 7.5 ± 0.33. On to “TTATATAATGACAAAAAAAAAAAAAAAAAAAAAAAA [CACACA_negctrl_site1467]”, for which the “gcPBM binding intensity (ln)” value was found to be 8.21 ± 0.68. For “GTATGATTACAAGAAAGTAGTCCACTTTAACAACAA [CACACA_negctrl_site1304]” the value was 8.06 ± 0.51; for “TAATTTATCCTATAATGTACTTATAAAATATATCAT [XGTACX_site1460]”, 7.7 ± 0.32; for “AGTCCATTTTATTATTGTACATATTAATTTATATCA [XGTACX_site672]”, 8.42 ± 0.51.

“ATTCAGAGTATATAAAAATTAATATATACATAATAT [CACACA_negctrl_site1782]”: the “gcPBM binding intensity (ln)” value worked out at 7.41 ± 0.49. Consider “ATGTACATAAACCGCACACATATAAAAAAATAAATA [CACACA_site5571]”, for which the “gcPBM binding intensity (ln)” value is 8.4 ± 0.057.

Consider “ATCAAATTATAATCATGTACAAATAAAAAAAAAAAA [XGTACX_site313]”, for which the “gcPBM binding intensity (ln)” value came to 7.91 ± 0.71.

On to “AGAAAAAAAAAAAAAAAACACACGGTACATCCAAAG [CACACA_site124]”, for which the “gcPBM binding intensity (ln)” value is 7.79 ± 0.7. The value for “AAATATCTACAAATATGTACATATTTTTTTTGGCTT [XGTACX_site6301]” was 7.96 ± 0.43; that for “TATTTTGTCATAGAACGTACTTATAAATATTTTTTT [XGTACX_site8424]” was 7.76 ± 0.45.

On to “ATAGAAGCTGTTGACGAAGAAAAAAAAAAAAAAAAA [CACACA_negctrl_site110]”, for which the “gcPBM binding intensity (ln)” value is 8.09 ± 0.51. The value for “ATCATATCCACCAAATGAATAATATAAAATAATATA [XGTACX_negctrl_site193]” was 8.12 ± 0.71; that for “AAATAACATAATAAGGGTACATTAATTTCGATAATG [XGTACX_site835]” was 7.72 ± 0.53. For “TATATATATATATATGCACACATTTATACAATTTTA [CACACA_site2986]” the value was 9.96 ± 0.38; for “TTTCTTTTTAAATAATAATGTATAATAAAAAGTTCA [TGCATGCA_negctrl_site195]”, 7.42 ± 0.5; for “TTTGTTTGATATATGTGTACATATATATATTATGCT [XGTACX_site3522]”, 7.85 ± 0.27.

As for AAGTACAATTCATGTATGCACTTTATTATATTTTAT, the “gcPBM binding intensity (ln)” value came to 8.85 ± 0.085. The value for “TATAATATGTATATCTGTACATATTTTAAATCTAAT [XGTACX_site2426]” was 7.5 ± 0.24. The value for “AAGATAAAATAATAAAGTACACATATAAATTGAAAA [XGTACX_site2113]” was 8.26 ± 0.071; that for “GTAATACCCAAACACACACACATACCCATATATATA [CACACA_site5510]” was 8.34 ± 0.77.

Turning to “AGAAAGTAAAGCTGTTGTACTATTATATATATTTTA [XGTACX_site8090]”, the “gcPBM binding intensity (ln)” value was determined as 7.65 ± 0.59.

In the case of “ATAGTTTTTCCAATTCAAAAAAAAAAAAAAAAAAAA [CACACA_negctrl_site969]”, the “gcPBM binding intensity (ln)” value was found to be 8.12 ± 0.83. The value for “TAAAAATATTATAATGCATGCAAAATATTGTTATAA [TGCATGCA_site244]” was 8.2 ± 0.77; that for “AAAGTATAAATAAATACACACATATTTATTTATATA [CACACA_site7375]” was 7.54 ± 0.46.

As to “GAGAGGATCATCAATTCACACACATAAAAATGAAGT [CACACA_site9010]”, the “gcPBM binding intensity (ln)” value amounted to 7.59 ± 0.67.

With “AACATATGATTAAACTGTACAAGAAAAATATAACAT [XGTACX_site4477]”, the “gcPBM binding intensity (ln)” value worked out at 8.2 ± 0.59.

Take “TATATATAAGATTGATGTACGATTTTGGTGTCTTAT [XGTACX_site2611]”: the “gcPBM binding intensity (ln)” value was determined as 8.19 ± 0.37. The value for “TGTTATGAGAACAGCACACAAGCTACATCATATATA [CACACA_site870]” was 7.7 ± 0.53. For “TATTATAGTATATATTGTACATATATATATTTTTTA [XGTACX_site8831]” the value was 7.59 ± 0.41. For “ATAATAATATATAGTACACACAAAAATGGAAGTAAA [CACACA_site3318]” the value was 8.13 ± 0.56; for “CTTTCTATATAAAATCGTACATATATAATATTATAT [XGTACX_site5807]”, 7.84 ± 0.44. As for “TAAATGTCTGTTAATGCACACGATATGTCTATATAT [CACACA_site2352]”, the “gcPBM binding intensity (ln)” value came out at 10.7 ± 0.54. For “TATATTAAGAAACACACACACATATATATATATATA [CACACA_site1609]” the value was 9.38 ± 0.63. The value for “GAAATTATAAATTGGACACACACATAAAAAATATGT [CACACA_site7957]” was 7.79 ± 0.59; that for “TTCCTATTTCCTATGTGTACTTATAAATAAGTGTCT [XGTACX_site3725]” was 8.11 ± 0.57. The value for “TCCGCATGTACATGGGTGCACATAACACCCATTTAA [GTGCAC_site9881]” was 10.4 ± 0.44. TTATACCTGATTTAGGTGCTATAAATTTGTGTTTTT: the “gcPBM binding intensity (ln)” value amounted to 9.78 ± 0.38. For “ATATATATATATATGTGTACTTATATATTTAAAAAA [XGTACX_site1761]” the value was 9.24 ± 0.33; for “ATATATATATATATATATATTTATATGTGAAAACCC [CACACA_negctrl_site845]”, 9.37 ± 0.45; for “GTAATTTTATATGGTTGTACATATATATATATATAT [XGTACX_site6659]”, 9.41 ± 0.45.

The values are drawn from the supplement of paper PMC11417369.
